{"source": "patent US20150274836A1", "binders": {"B1": {"name": "SD1-human Fc fusion protein, P01857 fragment (Fc fusion)", "chain": "QVQLVQSGGGLVQPGGSLRLSCAASDFDFAAYEMSWVRQAPGQGLEWVAIISHDGIDKYYTDSVKGRFTISRDNSKNTLYLQMNTLRAEDTATYYCLRLGAVGQGTLVTVSSS[human IgG1 Fc not shown]"}}, "biological_target": "C-terminal mesothelin peptide consisting of 50 amino acids (residues 539-588 of SEQ ID NO: 9) (human)", "sequence (peptide, as listed by the source)": "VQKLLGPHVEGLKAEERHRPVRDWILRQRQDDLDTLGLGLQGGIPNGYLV", "test": "ELISA on coated C-terminal mesothelin peptide, equilibrium constant by Prism / Scatchard"}
{"binder": "B1", "values": [{"measurement": "Kd", "result": 16.1, "unit": "nM"}]}
